For one assay, the system named is HSkMC. The assay can be described thus: cytotoxicity call (relative viability < 0.9). The following applies: 10 µM.
A further assay relates to HepG2. The assay can be described thus: cytotoxicity call (relative viability < 0.9). As to conditions: 10 µM.
The subject of another assay is S. aureus RN4220. As to the kind of experiment: growth inhibition call (relative growth <= 0.2). The following applies: 50 µM.

Each structure is given as a SMILES string. This is one part of the list.

On to `O=C1OCC=C[C@H]2O[C@@]34C=CCN(Cn5nnc6ccccc65)C(=O)[C@H]3N(CCCCCCO)C(=O)[C@@H]4[C@@H]12`, for which the cytotoxicity call in the assay on HSkMC and with HepG2 was “inactive” in each case. Besides, the growth inhibition call in the assay with S. aureus RN4220 is “inactive”.

For `C=CCN1C(=O)[C@]2(O[C@H](CCO)[C@@H]([Si](C)(C)c3ccc(OC)cc3)[C@@H]2C)c2cc(N(C=O)c3ccccc3)ccc21`, the cytotoxicity call in the assay on HSkMC and with HepG2 was “active” in each case. Moreover, the growth inhibition call in the assay with S. aureus RN4220 is “inactive”.

Consider `C[C@H](CO)N1C[C@H](C)[C@@H](CN(C)C(=O)NC2CCCCC2)Oc2ccc(NC(=O)C3CC3)cc2CC1=O`, for which the cytotoxicity call in the assay on HSkMC and with HepG2 was “inactive” in each case. Further, the growth inhibition call in the assay on S. aureus RN4220 is “inactive”.

In the case of `COc1ccc(NC(=O)Nc2ccc3c(c2)C(=O)N([C@H](C)CO)C[C@@H](C)[C@H](CN(C)S(=O)(=O)c2ccccc2)OCCCC[C@@H](C)O3)cc1`, the cytotoxicity call in the assay on HSkMC and with HepG2 was “inactive” throughout. In addition, in the assay on S. aureus RN4220, the growth inhibition call is “inactive”.

For the compound `C[C@H]1CN([C@@H](C)CO)C(=O)Cc2cc(NC(=O)Cn3cnnn3)ccc2O[C@@H]1CN(C)Cc1ccc(Oc2ccccc2)cc1`, the cytotoxicity call in the assay with HSkMC and with HepG2 was “inactive” each time. The growth inhibition call with S. aureus RN4220 was “inactive”.

As to `C[C@H]1CN([C@@H](C)CO)C(=O)Cc2cc(NS(C)(=O)=O)ccc2O[C@H]1CN(C)Cc1ccc(C(F)(F)F)cc1`, the cytotoxicity call in the assay on HSkMC and in the assay with HepG2 was “inactive” throughout. The growth inhibition call in the assay on S. aureus RN4220 was “inactive”.

With `COc1ccccc1C#Cc1cnc2c(c1)C(=O)N([C@@H](C)CO)C[C@H](C)[C@@H](CN(C)C(=O)CC1CC1)O2`, the cytotoxicity call in the assay on HSkMC and in the assay with HepG2 was “inactive” each time. For the same compound, the growth inhibition call in the assay with S. aureus RN4220 is “inactive”.

Regarding `COc1cccc(S(=O)(=O)N(C)C[C@@H]2Oc3ncc(C#Cc4ccc(OC)c(OC)c4)cc3C(=O)N([C@H](C)CO)C[C@@H]2C)c1`, the cytotoxicity call in the assay on HSkMC and in the assay on HepG2 was “inactive” throughout. For the same compound, the growth inhibition call with S. aureus RN4220 is “inactive”.

As for `C[C@@H]1CCCCO[C@@H](CN(C)S(=O)(=O)c2ccc(F)cc2)[C@@H](C)CN([C@H](C)CO)C(=O)c2cc(NC(=O)CCCCCC(=O)Nc3ccccc3N)ccc2O1`, the cytotoxicity call in the assay on HSkMC and with HepG2 was “inactive” each time. Moreover, the growth inhibition call with S. aureus RN4220 is “inactive”.

`O=C(C[C@H]1CC[C@@H]2[C@H](COC[C@@H](O)CN2C(=O)c2ccncc2)O1)NC1CCC1`: the cytotoxicity call in the assay with HSkMC and with HepG2 was “inactive” in each case. Moreover, the growth inhibition call in the assay on S. aureus RN4220 is “inactive”.

Consider `O=C(N[C@@H]1CC=CC[C@H](CC(=O)N(CCO)Cc2ccccc2)C(=O)NCC(c2ccccc2)OC1=O)OCC1c2ccccc2-c2ccccc21` (stereo partly specified), for which the cytotoxicity call with HSkMC and in the assay on HepG2 was “inactive” each time. The growth inhibition call in the assay with S. aureus RN4220 was “inactive”.

Regarding `Cc1nnc(NCc2ccccc2)n(N)c1=O`, the cytotoxicity call in the assay with HSkMC and in the assay with HepG2 was “inactive” each time. The growth inhibition call with S. aureus RN4220 was “inactive”.

Consider `C[C@H]1CN([C@@H](C)CO)S(=O)(=O)c2ccc(-c3ccc(C(=O)N(C)C)cc3)cc2O[C@H]1CN(C)C(=O)C1CCOCC1`, for which the cytotoxicity call in the assay on HSkMC and in the assay on HepG2 was “inactive” each time. For the same compound, the growth inhibition call with S. aureus RN4220 is “inactive”.

In the case of `C[C@H](NC(=O)C[C@H]1CC[C@H](NC(=O)CN2CCOCC2)[C@H](CO)O1)c1ccccc1`, the cytotoxicity call in the assay on HSkMC and in the assay with HepG2 was “inactive” throughout. For the same compound, the growth inhibition call in the assay with S. aureus RN4220 is “inactive”.

For the compound `C[C@H](CO)N1C[C@H](C)[C@H](CN(C)Cc2ccc(C(=O)O)cc2)Oc2c(NC(=O)c3ccc(-c4nccs4)cc3)cccc2C1=O`, the cytotoxicity call with HSkMC and with HepG2 was “inactive” each time. Also, the growth inhibition call in the assay on S. aureus RN4220 was “inactive”.

In the case of `OC1(c2ccc(Cl)c(C(F)(F)F)c2)CCN(CCCC(c2ccc(F)cc2)c2ccc(F)cc2)CC1`, the cytotoxicity call with HSkMC and in the assay with HepG2 was “active” throughout. For the same compound, the growth inhibition call in the assay on S. aureus RN4220 was “active”.

As to `Cc1noc(C)c1S(=O)(=O)Nc1cccc2c1O[C@H](CN(C)CC1CC1)[C@H](C)CN([C@@H](C)CO)C2=O`, the cytotoxicity call with HSkMC and with HepG2 was “inactive” each time. Further, the growth inhibition call with S. aureus RN4220 is “inactive”.

Take `COc1ccc(NC(=O)N(C)C[C@@H]2Oc3c(NC(=O)c4cnccn4)cccc3C(=O)N([C@@H](C)CO)C[C@H]2C)cc1`: the cytotoxicity call in the assay with HSkMC and in the assay on HepG2 was “inactive” in each case. In addition, the growth inhibition call with S. aureus RN4220 was “inactive”.

Regarding `C[C@@H]1CN([C@H](C)CO)C(=O)c2cc(NC(=O)NC3CCCCC3)ccc2O[C@@H]1CN(C)Cc1ccc(-c2ccccc2)cc1`, the cytotoxicity call in the assay with HSkMC was “inactive”. In addition, the cytotoxicity call in the assay with HepG2 is “active”. For the same compound, the growth inhibition call with S. aureus RN4220 is “inactive”.

On to `Cn1cnc(S(=O)(=O)N[C@H]2CC[C@@H](CC(=O)N3CCN(c4ccccc4)CC3)O[C@H]2CO)c1`, for which the cytotoxicity call with HSkMC and in the assay on HepG2 was “inactive” in each case. In addition, the growth inhibition call in the assay on S. aureus RN4220 is “inactive”.

As for `CCC(C)(C)C(=O)C(=O)N1CCCC[C@H]1C(=O)O[C@@H](CCc1ccc(OC)c(OC)c1)c1cccc(OCC(=O)NCCc2ccc(O)cc2)c1`, the cytotoxicity call with HSkMC and with HepG2 was “inactive” each time. Moreover, the growth inhibition call in the assay on S. aureus RN4220 is “inactive”.

In the case of `C[C@H](CO)N1C[C@H](C)[C@H](CN(C)Cc2ccc(-c3ccccc3)cc2)Oc2c(NC(=O)Nc3cccc4ccccc34)cccc2C1=O`, the cytotoxicity call in the assay with HSkMC and in the assay on HepG2 was “inactive” each time. Further, the growth inhibition call in the assay with S. aureus RN4220 is “inactive”.

For `CC(=O)N/C=C1\C(=O)N(C)C(=O)C(C#N)=C1C`, the cytotoxicity call in the assay on HSkMC and in the assay on HepG2 was “inactive” throughout. The growth inhibition call in the assay with S. aureus RN4220 was “inactive”.

For the compound `COc1ccc(S(=O)(=O)N(C)C[C@@H]2Oc3ccc(NC(=O)Nc4c(C)noc4C)cc3CC(=O)N([C@H](C)CO)C[C@H]2C)cc1`, the cytotoxicity call in the assay with HSkMC and in the assay on HepG2 was “inactive” in each case. Moreover, the growth inhibition call with S. aureus RN4220 was “inactive”.

With `C[C@@H]1CN([C@H](C)CO)C(=O)c2cccc(NS(=O)(=O)c3cn(C)cn3)c2O[C@H]1CN(C)Cc1ccc2c(c1)OCO2`, the cytotoxicity call in the assay with HSkMC and with HepG2 was “inactive” each time. In addition, the growth inhibition call with S. aureus RN4220 is “inactive”.

Consider `C[C@@H]1CN([C@@H](C)CO)C(=O)Cc2cc(N(C)C)ccc2O[C@@H]1CN(C)S(=O)(=O)c1ccc(Cl)cc1`, for which the cytotoxicity call in the assay on HSkMC (human skeletal muscle cells) and in the assay on HepG2 was “inactive” in each case. Further, the growth inhibition call in the assay with S. aureus RN4220 was “inactive”.

With `C[C@H]1CN([C@@H](C)CO)C(=O)c2cccc(NS(C)(=O)=O)c2O[C@H]1CN(C)Cc1ccc(C(F)(F)F)cc1`, the cytotoxicity call with HSkMC and with HepG2 was “inactive” each time. In the assay with S. aureus RN4220, the growth inhibition call was “inactive”.

Values taken from the antibiotic and cytotoxicity screens of Wong et al. (2023).
